# Experimental data: the supplement of paper PMC8728848
# Some of the results follow.
# Legend:
# Assay in all cases: glycan array binding signal (z-score within array); higher = stronger binding
# Conditions in all cases: glycan notation: IUPAC condensed, linker removed
# [1] = target: Gal(b1-3)[Fuc(a1-4)]GlcNAc(b1-3)Gal(b1-4)[Fuc(a1-3)]GlcNAc
# Method in brief: (§1)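 Glycan array data were curated from 3228 arrays in the Consortium for Functional Glycomics database and kept only where the protein sequence was available. Glycan names were converted to IUPAC-condensed notation, and columns mapping to the same glycan were averaged. The binding signal is a within-array Z-score, averaged across arrays of the same protein sequence at different concentrations or buffers and across linkers. Negative Z-scores can be read as non-binding.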
# [2] = target: Gal(b1-3)[GlcNAc(b1-6)]GalNAc
# Method in brief: as §1
# [3] = target: Gal(b1-3)[Neu5Ac(a2-6)]GalNAc
# Method in brief: as §1
# [4] = target: Gal(b1-3)[Neu5Ac(a2-6)]GlcNAc(b1-6)Gal(b1-4)Glc
# Method in brief: as §1
# [5] = target: Gal(b1-3)[Neu5Ac(b2-6)]GalNAc
# Method in brief: as §1
# [6] = target: Gal(b1-4)GalNAc(a1-3)[Fuc(a1-2)]Gal(b1-4)GlcNAc
# Method in brief: as §1
# [7] = target: Gal(b1-4)GalNAc(b1-3)[Fuc(a1-2)]Gal(b1-4)GlcNAc
# Method in brief: as §1
# Gal(b1-4)Glc = target: Gal(b1-4)Glc
# Method in brief: as §1
# Gal(b1-4)Glc6S = target: Gal(b1-4)Glc6S
# Method in brief: as §1
# Gal(b1-4)GlcNAc = target: Gal(b1-4)GlcNAc
# Method in brief: as §1
# [8] = target: Gal(b1-4)GlcNAc(b1-2)Man(a1-3)[Gal(b1-4)GlcNAc(b1-2)Man(a1-6)]Man(b1-4)GlcNAc(b1-4)GlcNAc
# Method in brief: as §1
# [9] = target: Gal(b1-4)GlcNAc(b1-3)Gal(b1-4)Glc
# Method in brief: as §1
# [10] = target: Gal(b1-4)GlcNAc(b1-3)Gal(b1-4)GlcNAc
# Method in brief: as §1
# [11] = target: Gal(b1-4)GlcNAc(b1-3)Gal(b1-4)GlcNAc(b1-3)Gal(b1-4)GlcNAc
# Method in brief: as §1
# [12] = target: Gal(b1-4)GlcNAc(b1-3)Gal(b1-4)[Fuc(a1-3)]GlcNAc(b1-3)Gal(b1-4)[Fuc(a1-3)]GlcNAc
# Method in brief: as §1
# [13] = target: Gal(b1-4)GlcNAc(b1-3)GalNAc
# Method in brief: as §1
# [14] = target: Gal(b1-4)GlcNAc(b1-3)[Gal(b1-4)GlcNAc(b1-6)]GalNAc
# Method in brief: as §1
# [15] = target: Gal(b1-4)GlcNAc(b1-6)Gal(b1-4)GlcNAc(b1-6)GalNAc
# Method in brief: as §1
# [16] = target: Gal(b1-4)GlcNAc(b1-6)GalNAc
# Method in brief: as §1
# [17] = target: Gal(b1-4)GlcNAc(b1-6)[Gal(b1-3)]GalNAc
# Method in brief: as §1
# Gal3S(b1-3)GalNAc = target: Gal3S(b1-3)GalNAc
# Method in brief: as §1
# Gal3S(b1-3)GlcNAc = target: Gal3S(b1-3)GlcNAc
# Method in brief: as §1
# [18] = target: Gal3S(b1-3)[Fuc(a1-4)]GlcNAc
# Method in brief: as §1
# Gal3S(b1-4)Glc = target: Gal3S(b1-4)Glc
# Method in brief: as §1
# Gal3S(b1-4)Glc6S = target: Gal3S(b1-4)Glc6S
# Method in brief: as §1
# Gal3S(b1-4)GlcNAc = target: Gal3S(b1-4)GlcNAc
# Method in brief: as §1
# Gal3S(b1-4)GlcNAc6S = target: Gal3S(b1-4)GlcNAc6S
# Method in brief: as §1
# Gal3S6S(b1-4)GlcNAc = target: Gal3S6S(b1-4)GlcNAc
# Method in brief: as §1
# Gal3S6S(b1-4)GlcNAc6S = target: Gal3S6S(b1-4)GlcNAc6S
# Method in brief: as §1
# Gal4S(b1-4)GlcNAc = target: Gal4S(b1-4)GlcNAc
# Method in brief: as §1
# Gal4S6S(b1-4)GlcNAc = target: Gal4S6S(b1-4)GlcNAc
# Method in brief: as §1
# Gal6S(b1-4)Glc = target: Gal6S(b1-4)Glc
# Method in brief: as §1
# Gal6S(b1-4)Glc6S = target: Gal6S(b1-4)Glc6S
# Method in brief: as §1
# Gal6S(b1-4)GlcNAc = target: Gal6S(b1-4)GlcNAc
# Method in brief: as §1
# GalNAc(a1-3)Gal = target: GalNAc(a1-3)Gal
# Method in brief: as §1
# GalNAc(a1-3)GalNAc = target: GalNAc(a1-3)GalNAc
# Method in brief: as §1
# [19] = target: GalNAc(b1-3)Gal(a1-4)Gal(b1-4)GlcNAc
# Method in brief: as §1
# GalNAc(b1-3)GalNAc = target: GalNAc(b1-3)GalNAc
# Method in brief: as §1
# GalNAc(b1-4)GlcNAc = target: GalNAc(b1-4)GlcNAc
# Method in brief: as §1
# Glc(a1-4)Glc = target: Glc(a1-4)Glc
# Method in brief: as §1
# Glc(a1-6)Glc(a1-6)Glc = target: Glc(a1-6)Glc(a1-6)Glc
# Method in brief: as §1
# Glc(b1-4)Glc = target: Glc(b1-4)Glc
# Method in brief: as §1
# Glc(b1-6)Glc = target: Glc(b1-6)Glc
# Method in brief: as §1
# GlcA(b1-3)Gal = target: GlcA(b1-3)Gal
# Method in brief: as §1
# GlcA(b1-6)Gal = target: GlcA(b1-6)Gal
# Method in brief: as §1
# [20] = target: GlcNAc(a1-3)Gal(b1-4)GlcNAc
# Method in brief: as §1
# [21] = target: GlcNAc(a1-6)Gal(b1-4)GlcNAc
# Method in brief: as §1
# [22] = target: GlcNAc(b1-2)Gal(b1-3)GalNAc
# Method in brief: as §1
# [23] = target: GlcNAc(b1-2)Man(a1-3)[GlcNAc(b1-2)Man(a1-6)]Man(b1-4)GlcNAc(b1-4)GlcNAc
# Method in brief: as §1
# GlcNAc(b1-3)Gal = target: GlcNAc(b1-3)Gal
# Method in brief: as §1
# [24] = target: GlcNAc(b1-3)Gal(b1-3)GalNAc
# Method in brief: as §1
# GlcNAc(b1-3)Gal(b1-4)Glc = target: GlcNAc(b1-3)Gal(b1-4)Glc
# Method in brief: as §1
# [25] = target: GlcNAc(b1-3)Gal(b1-4)GlcNAc
# Method in brief: as §1
# [26] = target: GlcNAc(b1-3)Gal(b1-4)GlcNAc(b1-3)Gal(b1-4)GlcNAc
# Method in brief: as §1
# GlcNAc(b1-3)GalNAc = target: GlcNAc(b1-3)GalNAc
# Method in brief: as §1
# [27] = target: GlcNAc(b1-3)[GlcNAc(b1-6)]Gal(b1-4)GlcNAc
# Method in brief: as §1
# [28] = target: GlcNAc(b1-3)[GlcNAc(b1-6)]GalNAc
# Method in brief: as §1
# [29] = target: GlcNAc(b1-3)[GlcNAc(b1-6)]GlcNAc(b1-4)GlcNAc
# Method in brief: as §1
# [30] = target: GlcNAc(b1-4)Gal(b1-4)GlcNAc
# Method in brief: as §1
# [31] = target: GlcNAc(b1-4)GlcNAc(b1-4)GlcNAc
# Method in brief: as §1
binder,measurement,setting,value
SIGNR8 (Mus musculus) (protein) MAGEPEFHQSKNHEEEVTSGEQGFAEHDPEGLICSSKSLQGHLTQVPWLLLLLISLGLFLLMLATLVQVSRIRAYSQGQTQDQQGSSSLDKVAVPREQTHSGLEQIQQIQQQLTQFNASLAGLCRPCPWDWELFQGSCYLFSRTLGSWETSASSCEDLGAHLVIVNSVSEQRFMKYWNVRKNQRSWIGLSDHIHEGSWQWVDGSALKFSFWKEGEPNNDGDEDCVELFMDDWNDNKCTEQNFWVCEQPSAPCPHH,glycan array binding signal (z-score),[1],-0.386
same,glycan array binding signal (z-score),[2],-0.385
same,glycan array binding signal (z-score),[3],-0.39
same,glycan array binding signal (z-score),[4],-0.396
same,glycan array binding signal (z-score),[5],-0.394
same,glycan array binding signal (z-score),[6],-0.405
same,glycan array binding signal (z-score),[7],-0.404
same,glycan array binding signal (z-score),Gal(b1-4)Glc,2.38
same,glycan array binding signal (z-score),Gal(b1-4)Glc6S,0.338
same,glycan array binding signal (z-score),Gal(b1-4)GlcNAc,1.07
same,glycan array binding signal (z-score),[8],2.8
same,glycan array binding signal (z-score),[9],2.76
same,glycan array binding signal (z-score),[10],2.1
same,glycan array binding signal (z-score),[11],1.7
same,glycan array binding signal (z-score),[12],1.68
same,glycan array binding signal (z-score),[13],2.89
same,glycan array binding signal (z-score),[14],2.68
same,glycan array binding signal (z-score),[15],2.17
same,glycan array binding signal (z-score),[16],1.28
same,glycan array binding signal (z-score),[17],2.18
same,glycan array binding signal (z-score),Gal3S(b1-3)GalNAc,-0.358
same,glycan array binding signal (z-score),Gal3S(b1-3)GlcNAc,-0.363
same,glycan array binding signal (z-score),[18],-0.369
same,glycan array binding signal (z-score),Gal3S(b1-4)Glc,-0.374
same,glycan array binding signal (z-score),Gal3S(b1-4)Glc6S,-0.356
same,glycan array binding signal (z-score),Gal3S(b1-4)GlcNAc,-0.356
same,glycan array binding signal (z-score),Gal3S(b1-4)GlcNAc6S,-0.357
same,glycan array binding signal (z-score),Gal3S6S(b1-4)GlcNAc,-0.338
same,glycan array binding signal (z-score),Gal3S6S(b1-4)GlcNAc6S,-0.336
same,glycan array binding signal (z-score),Gal4S(b1-4)GlcNAc,-0.347
same,glycan array binding signal (z-score),Gal4S6S(b1-4)GlcNAc,-0.359
same,glycan array binding signal (z-score),Gal6S(b1-4)Glc,-0.369
same,glycan array binding signal (z-score),Gal6S(b1-4)Glc6S,-0.364
same,glycan array binding signal (z-score),Gal6S(b1-4)GlcNAc,-0.353
same,glycan array binding signal (z-score),GalNAc(a1-3)Gal,-0.329
same,glycan array binding signal (z-score),GalNAc(a1-3)GalNAc,-0.356
same,glycan array binding signal (z-score),[19],-0.384
same,glycan array binding signal (z-score),GalNAc(b1-3)GalNAc,-0.382
same,glycan array binding signal (z-score),GalNAc(b1-4)GlcNAc,-0.382
same,glycan array binding signal (z-score),Glc(a1-4)Glc,-0.396
same,glycan array binding signal (z-score),Glc(a1-6)Glc(a1-6)Glc,-0.378
same,glycan array binding signal (z-score),Glc(b1-4)Glc,-0.396
same,glycan array binding signal (z-score),Glc(b1-6)Glc,-0.385
same,glycan array binding signal (z-score),GlcA(b1-3)Gal,-0.366
same,glycan array binding signal (z-score),GlcA(b1-6)Gal,-0.399
same,glycan array binding signal (z-score),[20],-0.395
same,glycan array binding signal (z-score),[21],-0.379
same,glycan array binding signal (z-score),[22],-0.383
same,glycan array binding signal (z-score),[23],-0.385
same,glycan array binding signal (z-score),GlcNAc(b1-3)Gal,-0.351
same,glycan array binding signal (z-score),[24],-0.385
same,glycan array binding signal (z-score),GlcNAc(b1-3)Gal(b1-4)Glc,-0.386
same,glycan array binding signal (z-score),[25],-0.398
same,glycan array binding signal (z-score),[26],-0.4
same,glycan array binding signal (z-score),GlcNAc(b1-3)GalNAc,-0.39
same,glycan array binding signal (z-score),[27],-0.39
same,glycan array binding signal (z-score),[28],-0.393
same,glycan array binding signal (z-score),[29],-0.373
same,glycan array binding signal (z-score),[30],-0.387
same,glycan array binding signal (z-score),[31],-0.402
